Measured values reported in paper PMC4336329 (PLoS ONE, 2015).
In all, about 310,000 compounds went through this assay and about 2,200 (0.71%) showed an effect of 50% or more. The effect is printed as a negative number. The list shows a part of the results.

target: human ether-à-go-go-related gene (hERG) potassium channel (human, UniProt Q12809); assay: primary screen, population patch clamp on CHO cells stably expressing hERG
Sequence (Q12809 whole entry, looked up): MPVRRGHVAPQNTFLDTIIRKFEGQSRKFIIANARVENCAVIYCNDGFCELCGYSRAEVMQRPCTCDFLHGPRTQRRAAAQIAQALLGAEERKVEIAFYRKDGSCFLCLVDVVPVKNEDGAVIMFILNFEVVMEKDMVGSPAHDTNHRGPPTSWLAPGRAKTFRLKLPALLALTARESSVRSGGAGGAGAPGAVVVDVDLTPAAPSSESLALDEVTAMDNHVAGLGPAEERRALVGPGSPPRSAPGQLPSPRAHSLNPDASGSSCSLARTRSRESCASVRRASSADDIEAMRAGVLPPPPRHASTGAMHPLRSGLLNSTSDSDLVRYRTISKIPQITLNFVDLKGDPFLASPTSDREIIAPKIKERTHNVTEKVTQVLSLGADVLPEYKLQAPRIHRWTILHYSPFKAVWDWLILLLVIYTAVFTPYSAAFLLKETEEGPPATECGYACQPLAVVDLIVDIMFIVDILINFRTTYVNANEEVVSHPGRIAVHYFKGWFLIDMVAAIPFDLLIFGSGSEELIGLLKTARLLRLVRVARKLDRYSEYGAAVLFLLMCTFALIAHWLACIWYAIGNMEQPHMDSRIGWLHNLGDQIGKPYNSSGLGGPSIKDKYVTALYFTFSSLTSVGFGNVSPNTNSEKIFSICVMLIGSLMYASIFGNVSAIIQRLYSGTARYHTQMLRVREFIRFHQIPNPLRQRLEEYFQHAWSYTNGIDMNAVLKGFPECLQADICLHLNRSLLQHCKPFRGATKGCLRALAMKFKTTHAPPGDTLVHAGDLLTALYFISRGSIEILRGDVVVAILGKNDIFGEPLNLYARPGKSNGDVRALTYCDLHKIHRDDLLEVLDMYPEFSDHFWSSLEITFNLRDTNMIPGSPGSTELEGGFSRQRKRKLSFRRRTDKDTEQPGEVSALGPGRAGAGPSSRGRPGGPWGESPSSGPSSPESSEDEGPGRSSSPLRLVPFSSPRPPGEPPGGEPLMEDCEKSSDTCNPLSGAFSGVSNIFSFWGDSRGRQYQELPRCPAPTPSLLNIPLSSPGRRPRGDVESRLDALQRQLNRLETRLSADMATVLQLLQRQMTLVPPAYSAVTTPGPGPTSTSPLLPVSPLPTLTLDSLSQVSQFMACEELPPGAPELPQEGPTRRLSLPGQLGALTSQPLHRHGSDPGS

Compared with Cc1ccc(S(=O)(=O)N2CCOCC2)cc1NC(=O)CSc1ncccn1, Cc1ccc(S(=O)(=O)N2CCCCC2)cc1NC(=O)COC(=O)Cc1ccc(Cl)cc1 is lower in “hERG current change (%, negative = inhibition) at 1uM” value: 8.69% for the first, 5.34% for the second.

First: Cc1ccc(CNC(=O)CSc2nc3c(sc4ccccc43)c(=O)n2CCCN2CCCC2)cc1
Second: COc1ccc(Cn2c(=N)c(C(=O)NCC3CCCO3)cc3c(=O)n4ccccc4nc32)cc1 (centres unmarked)
The “hERG current change (%, negative = inhibition) at 1uM” value of the first is higher: -57.9% for the first, -85% for the second.

Going from O=C(Nc1ccc(Br)cc1)c1cccc(N2C(=O)C3CCCCC3C2=O)c1 (centres unmarked) to CC1CCN(S(=O)(=O)c2ccc(NC(=O)c3ccco3)cc2)CC1, the “hERG current change (%, negative = inhibition) at 1uM” value falls from 4.31% to 0.115%.

First: CCC(C)(C)C1CCc2c(sc(NC(=O)c3ccccc3C(=O)O)c2C#N)C1 (centres unmarked)
Second: CCC1(C)Cc2c(C#N)c(N)n(-c3ccccc3)c(=S)c2CO1 (centres unmarked)
The “hERG current change (%, negative = inhibition) at 1uM” value of the first is higher: 11.6% for the first, 1.51% for the second.

Going from CCN(CC)S(=O)(=O)c1cccc(C(=O)Oc2cccnc2)c1 to CCN(c1ccccc1)S(=O)(=O)c1ccc2c(c1)N(C(C)=O)CCO2, the “hERG current change (%, negative = inhibition) at 1uM” value rises from 6.69% to 12%.

First: CCS(=O)(=O)C(C)(CCl)C(=O)Nc1ccc(C(=O)OC)cc1 (centres unmarked)
Second: COc1ccccc1NS(=O)(=O)c1cc(NC(=O)C2=NNC(=O)CC2)ccc1C
The “hERG current change (%, negative = inhibition) at 1uM” value of the first is higher: 7.99% for the first, 6.92% for the second.

Going from Cc1ccc(NC(=S)NC(NC(=O)C(C)(C)C)C(Cl)(Cl)Cl)c(C)c1 (centres unmarked) to COC(=O)c1c(NC(=O)c2ccco2)sc(C(=O)N(C)C)c1C, the “hERG current change (%, negative = inhibition) at 1uM” value falls from 10.3% to 2.37%.

Compared with COC(=O)c1ccc(CN2CCCC(CO)(Cc3ccccc3F)C2)cc1 (centres unmarked), CCOC(=O)c1cccc(NC(=O)CN2CCN(c3ccc(OC)cc3)CC2)c1 is lower in “hERG current change (%, negative = inhibition) at 1uM” value: -0.373% for the first, -8.34% for the second.

First: CCOCCCNc1nc2c(C)cccn2c(=O)c1/C=C1\SC(=S)N(C(C)CC)C1=O (centres unmarked)
Second: CCCNc1nc2c(c(=O)[nH]c(=O)n2C)n1CCC(C)C
The “hERG current change (%, negative = inhibition) at 1uM” value of the first is higher: 10.1% for the first, 4.03% for the second.

First: Cc1ccc(C(=O)OCC(=O)N2C(C)CCCC2C)cc1S(=O)(=O)N1CCOCC1 (centres unmarked)
Second: COc1ccc(S(=O)(=O)N2CCCC(C(=O)NCC3CCCO3)C2)cc1C (centres unmarked)
The “hERG current change (%, negative = inhibition) at 1uM” value of the first is higher: 3.41% for the first, -0.826% for the second.

First: COn1c(-c2ccccc2)nc2ccc(Cl)cc21
Second: OC(CN1CCOCC1)Cn1c(-c2cccc(Cl)c2)nc2ccccc21 (centres unmarked)
The “hERG current change (%, negative = inhibition) at 1uM” value of the first is higher: -0.278% for the first, -2.2% for the second.

Going from N/C(=N\S(=O)(=O)c1ccccc1)c1ccc([N+](=O)[O-])cc1 to O=C(NCc1ccco1)c1cc(NS(=O)(=O)c2cccc([N+](=O)[O-])c2)ccc1O, the “hERG current change (%, negative = inhibition) at 1uM” value rises from -4.75% to 10.5%.

First: COc1ccc(S(=O)(=O)N2CCN=C2SCc2cccc(F)c2)cc1
Second: COc1ccc(NS(=O)(=O)c2ccc(NC(=O)Cc3cccs3)cc2)cc1
The “hERG current change (%, negative = inhibition) at 1uM” value of the first is lower: 9.72% for the first, 11.8% for the second.

First: CCCCN(C(=O)C(C)(C)Oc1ccc(Cl)cc1)c1c(N)n(CCC)c(=O)[nH]c1=O
Second: CCCCn1c(N)c(N(CCOC)C(=O)CCCc2nc3ccccc3c(=O)[nH]2)c(=O)[nH]c1=O
The “hERG current change (%, negative = inhibition) at 1uM” value of the first is lower: 7.71% for the first, 10.7% for the second.

First: CCc1nnc(NC(=O)CSc2nc3cc4c(cc3cc2CC)OCCO4)s1
Second: Cc1cc(NC(=O)CSc2nc3c(c(=O)n(C)c(=O)n3C)n2C(C)C)no1
The “hERG current change (%, negative = inhibition) at 1uM” value of the first is lower: 1.97% for the first, 15.3% for the second.

Compared with CCCN1CCN(C(=O)c2noc3c2COc2ccc(C)cc2-3)CC1, CN1CCN(C(=O)c2cc(-c3cccc(Cl)c3)on2)CC1 is lower in “hERG current change (%, negative = inhibition) at 1uM” value: 10.5% for the first, 5.71% for the second.

First: Cc1nn2c(=O)cc(CSc3ccccc3NC(=O)c3ccccc3)nc2s1
Second: Cc1ccc(-c2cc(C(=O)N(C)CC(=O)Nc3ccccc3Br)c3ccccc3n2)o1
The “hERG current change (%, negative = inhibition) at 1uM” value of the first is lower: 4.5% for the first, 13.6% for the second.

Going from CC(C(=O)NC1CC(C)(C)NC(C)(C)C1)c1ccc([N+](=O)[O-])cc1 (centres unmarked) to Cc1noc(C)c1S(=O)(=O)N(CC(=O)NC1CCCC1)c1ccc(C(C)C)cc1, the “hERG current change (%, negative = inhibition) at 1uM” value rises from 6.13% to 14.6%.

First: CC(=O)Nc1ccc(C(C#N)c2ccccc2)cc1 (centres unmarked)
Second: CC(OC(=O)c1cc2ccccc2cc1O)C(=O)Nc1ccc(S(N)(=O)=O)cc1 (centres unmarked)
The “hERG current change (%, negative = inhibition) at 1uM” value of the first is higher: 14.6% for the first, -3.93% for the second.

Going from O=C(OCC(=O)N1CCN(C(=O)c2ccco2)CC1)c1ccccc1OCc1ccccc1 to Cc1cc(C(=O)N2CCN(C/C=C/c3ccccc3)CC2)cs1, the “hERG current change (%, negative = inhibition) at 1uM” value falls from -3.06% to -6.41%.

First: CC(=O)Nc1ccc(S(=O)(=O)NC2(C(F)(F)F)C(=O)Nc3c2c(=O)[nH]c(=O)n3Cc2ccccc2)cc1 (centres unmarked)
Second: O=C(NCc1cccnc1)/C(=C/c1ccc(-c2ccc(Cl)cc2)o1)S(=O)(=O)c1ccccc1
The “hERG current change (%, negative = inhibition) at 1uM” value of the first is higher: 11.7% for the first, 7.41% for the second.

First: CCOc1ccc2c(c1)c(N=NC(N)=S)c(O)n2C
Second: CCOC(=O)C1=C(C)OC(N)=C(C#N)C1c1cc(F)ccc1F (centres unmarked)
The “hERG current change (%, negative = inhibition) at 1uM” value of the first is higher: 9.76% for the first, 5.75% for the second.

Going from CCOC(=O)c1sc(-c2ccccc2)cc1N to CCCC1=[N+](CC(=O)c2ccccc2)CCn2c(C)ccc21.[Br-], the “hERG current change (%, negative = inhibition) at 1uM” value rises from 12.3% to 14%.

First: Cc1nc2ccccc2c(=O)n1-c1ccccc1[N+](=O)[O-]
Second: Cc1nc2ccccc2c(=O)n1/N=C/c1ccc([N+](=O)[O-])o1
The “hERG current change (%, negative = inhibition) at 1uM” value of the first is higher: 5.38% for the first, -18.8% for the second.

First: Cc1ccc(C)c(N2C(=O)CC(N3CCN(Cc4ccc5c(c4)OCO5)CC3)C2=O)c1 (centres unmarked)
Second: COc1ccc(NC2=C(C(C)=O)C(c3ccc4c(c3)OCO4)C(C(C)=O)C(C)(O)C2)cc1 (centres unmarked)
The “hERG current change (%, negative = inhibition) at 1uM” value of the first is lower: -6.05% for the first, 12.2% for the second.

Compared with COCCOC(=O)c1[nH]c2c(c1C)C(=O)CC(c1cc(OC)c(OC)c(OC)c1)C2 (centres unmarked), COc1ccc(-c2c(C)nn3c(N4CCC(C(=O)NCCN(C)C)CC4)cc(C)nc23)cc1OC is lower in “hERG current change (%, negative = inhibition) at 1uM” value: 14.1% for the first, 2.6% for the second.

Going from COC(=O)C(O)(NC(=O)OCc1ccccc1)C(F)(F)F (centres unmarked) to CCN(CC(=O)Nc1ccccc1C(F)(F)F)C(=O)CN1C(=O)NC2(CCCCC2)C1=O, the “hERG current change (%, negative = inhibition) at 1uM” value rises from 4.17% to 9.72%.

Compared with CNS(=O)(=O)c1ccc(NC(=S)Nc2ccc3c(c2)OCO3)cc1, Cc1ccc(-c2nc(C3CCCN(S(=O)(=O)c4ccc(C)cc4)C3)no2)cc1 (centres unmarked) is higher in “hERG current change (%, negative = inhibition) at 1uM” value: 12% for the first, 12.4% for the second.

Going from CCCN(CCC)C(=O)CSc1nc2ccsc2c(=O)n1NC(=O)c1ccccc1 to O=C(CCC(=O)c1cccs1)OCc1nc2ccccc2s1, the “hERG current change (%, negative = inhibition) at 1uM” value rises from 0.568% to 12.6%.

First: C[C@H]1CN=C(Nc2ccccc2)N1CC1CCCCC1
Second: CCCc1cc(C(=O)NC2CCCCC2)no1
The “hERG current change (%, negative = inhibition) at 1uM” value of the first is higher: 8.66% for the first, 3.58% for the second.

Compared with O=C1CC(=O)N(c2cccc(F)c2)N1, CCN(c1cccc(C)c1)S(=O)(=O)c1c(C)[nH]c(=O)[nH]c1=O is lower in “hERG current change (%, negative = inhibition) at 1uM” value: 11.8% for the first, 8.54% for the second.

Going from O=C(COC(=O)/C=C/c1cccc(Br)c1)NCCC1=CCCCC1 to O=C(Oc1ccc2c3c(c(=O)oc2c1)CCCC3)c1cccs1, the “hERG current change (%, negative = inhibition) at 1uM” value falls from 22% to 1.04%.

Compared with Cc1ccccc1-n1nc2c(c1NC(=O)c1c(-c3ccccc3Cl)noc1C)CSC2, CCCNC(=O)c1noc2c1CCc1ccccc1-2 is higher in “hERG current change (%, negative = inhibition) at 1uM” value: 7.29% for the first, 9.55% for the second.

Going from CCCCOC(=O)c1sc2nc(C)cc(C)c2c1N to C=CCn1c(SCC(=O)c2c(N)n(C)c(=O)n(C)c2=O)nc2sc(C)c(C)c2c1=O, the “hERG current change (%, negative = inhibition) at 1uM” value falls from 3.42% to 3.31%.

First: Cc1ccccc1NC(=O)CN1CCN(C)CC1.O=C(O)C(=O)O
Second: Cc1ccc(CNC(=O)C2CCN(S(=O)(=O)c3c(C)noc3C)CC2)cc1
The “hERG current change (%, negative = inhibition) at 1uM” value of the first is lower: -1.46% for the first, 13.7% for the second.

First: CCCCCCC(=O)N/N=C/c1ccc(Br)cc1
Second: CCOc1ccc(CCNC(=O)Cn2c(=O)c3cccn3c3cccnc32)cc1
The “hERG current change (%, negative = inhibition) at 1uM” value of the first is higher: 8.34% for the first, 0.911% for the second.

Compared with CC(C)n1c(NCc2ccccc2O)nc2ccccc21, COc1ccc(-n2ncc3c(NCc4ccco4)ncnc32)cc1 is lower in “hERG current change (%, negative = inhibition) at 1uM” value: 6.66% for the first, 2.22% for the second.

Compared with COc1ccc(Cl)cc1S(=O)(=O)N1CCCC(C(=O)N2CCCC2)C1 (centres unmarked), Cc1noc(C)c1S(=O)(=O)Nc1ccc(C(=O)N2CCC(C)CC2)cc1 is lower in “hERG current change (%, negative = inhibition) at 1uM” value: 7.93% for the first, 1.05% for the second.

Going from O=C1CC(C(=O)Nc2ccc(Cl)c(Cl)c2)S/C(=N\N=C\c2ccco2)N1 (centres unmarked) to O=C(/C=C/c1ccc(Cl)cc1)N1CCN(c2ccc([N+](=O)[O-])c(N3CCOCC3)c2)CC1, the “hERG current change (%, negative = inhibition) at 1uM” value falls from -3.88% to -11.1%.

Going from Cc1ccnc(SCCn2c(N3CC(C)OC(C)C3)nc3c2c(=O)n(C)c(=O)n3C)n1 (centres unmarked) to Cc1cc(C)nc(Nc2n[nH]c(-c3ccccc3Cl)n2)n1, the “hERG current change (%, negative = inhibition) at 1uM” value rises from 0.925% to 10.1%.

Going from COc1ccc(OC)c(Nc2nc(-c3cccc([N+](=O)[O-])c3)nc3ccccc23)c1 to COCCN1CCn2c(nc3cc([N+](=O)[O-])ccc32)C1, the “hERG current change (%, negative = inhibition) at 1uM” value rises from -1.31% to 7.61%.

Compared with CCS(=O)(=O)c1ccc2c(c1)N(S(C)(=O)=O)CC(C(=O)NCCOC)O2 (centres unmarked), COCCNC(=O)c1onc(CSc2ccc(F)c(F)c2)c1C(=O)NCCOC is higher in “hERG current change (%, negative = inhibition) at 1uM” value: 10.6% for the first, 12% for the second.

Going from Nc1ncnc2c1nc(SCCO)n2Cc1ccccc1 to Nc1ccc(C2(c3ccc(N)cc3)CN3CCC2CC3)cc1, the “hERG current change (%, negative = inhibition) at 1uM” value falls from 9.92% to 4.16%.
